# Source: the supplement of paper PMC10369915
# This is one part of the list. Rule as the data show it: active = 3.2 or more and inactive = the rest. Most of these values are background signal.
# Tests used:
# Assay in all cases: enrichment score (SH2-bound / input frequency) (ratio); bacterial display of known human phosphotyrosine sites (pTyr-Var adds point mutants) read by sequencing; higher = stronger binding; tyrosines were phosphorylated by kinases first
# Details in all cases: peptide library: pTyr-Var
# SHP2 C-SH2 domain E139D = target: SHP2 C-SH2 domain E139D
# [1] = target: SHP2 C-SH2 domain wild-type
# SHP2 N-SH2 domain L43F = target: SHP2 N-SH2 domain L43F
# SHP2 N-SH2 domain T42A = target: SHP2 N-SH2 domain T42A
# SHP2 N-SH2 domain T52S = target: SHP2 N-SH2 domain T52S
# [2] = target: SHP2 N-SH2 domain wild-type
# 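Also: displayed peptides selected on beads carrying the immobilized SH2 domain, with library peptides lacking any tyrosine serving as negative controls.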
Binder,enrichment score (SHP2 C-SH2 domain E139D),enrichment score [1],enrichment score (SHP2 N-SH2 domain L43F),enrichment score (SHP2 N-SH2 domain T42A),enrichment score (SHP2 N-SH2 domain T52S),enrichment score [2]
IWIFHYAKGQP [MPZ_Y82_S78W],inactive: 2.76,inactive: 2.93,inactive: 2.82,inactive: 2.58,inactive: 2.36,inactive: 2.75
TRDVNYGWVIR [MT-CYB_Y75_I78V],inactive: 0.933,inactive: 0.888,inactive: 0.894,inactive: 0.886,inactive: 0.916,inactive: 1.1
RQSTLYSFFPK [MSH6_Y8],inactive: 1.46,inactive: 1.55,inactive: 1.24,inactive: 1.71,inactive: 1.24,inactive: 0.954
ISIFRYAKGQP [MPZ_Y82_H81R],inactive: 0.468,inactive: 0.356,inactive: 0.448,inactive: 0.347,inactive: 0.49,inactive: 0.328
QTPVLYAMLDH [MPZ_Y220],inactive: 1.24,inactive: 1.8,active: 4.03,active: 7.44,active: 5.11,inactive: 2.16
SLNEVYTKNKT [MSH2_Y563_E562V],inactive: 0.632,inactive: 0.611,inactive: 0.611,inactive: 0.584,inactive: 0.665,inactive: 0.753
LLLLFCVVRFC [MPZ_Y177_Y177C_YF],inactive: 1.7,inactive: 1.63,inactive: 1.28,inactive: 1.46,inactive: 2.03,inactive: 1.36
LWPIWYSCHRP [MRGPRX1_Y130_R131S],inactive: 0.623,inactive: 0.763,inactive: 0.649,inactive: 0.643,inactive: 0.641,inactive: 0.654
LEEFQYIGELQ [MSH2_Y856_S860L],inactive: 0.982,inactive: 0.774,inactive: 0.85,inactive: 0.807,inactive: 0.69,inactive: 1.02
MLNTNYHLPPS [MT-ATP8_Y33],inactive: 0.899,inactive: 0.884,inactive: 0.983,inactive: 0.828,inactive: 0.936,inactive: 0.833
QTPVLYAMLYH [MPZ_Y220_D224Y],inactive: 0.79,inactive: 0.933,inactive: 0.84,inactive: 0.927,inactive: 0.965,inactive: 0.953
LEAFQYIGESQ [MSH2_Y856_E853A],inactive: 1.32,inactive: 1.05,inactive: 0.921,inactive: 0.869,inactive: 1.06,inactive: 1.2
ISIFYYAKGQP [MPZ_Y82_H81Y],inactive: 0.78,inactive: 0.876,inactive: 0.613,inactive: 1.25,inactive: 1.05,inactive: 1.33
ISIFFYAKGQP [MPZ_Y82_H81Y_YF],inactive: 0.623,inactive: 1.11,inactive: 0.7,inactive: 0.774,inactive: 0.509,inactive: 1.09
QLPATCMNLGP [MST1R_Y1360_Y1360C],inactive: 1,inactive: 0.833,inactive: 0.881,inactive: 0.764,inactive: 0.728,inactive: 1.05
DDSNPYINVKL [MTHFD1_Y52_L51P],inactive: 0.627,inactive: 0.674,inactive: 0.553,inactive: 0.586,inactive: 0.568,inactive: 0.763
RDSQLYAVDYE [MRPS34_Y34],inactive: 0.667,inactive: 0.73,inactive: 0.767,inactive: 0.42,inactive: 0.457,inactive: 0.607
VDTRAYLTSAT [MT-CO1_Y304_F305L],inactive: 0.687,inactive: 0.976,inactive: 0.66,inactive: 0.638,inactive: 0.773,inactive: 0.826
KMGNIYRTEFG [MRPL3_Y265_YF],inactive: 0.652,inactive: 0.585,inactive: 0.676,inactive: 0.581,inactive: 0.67,inactive: 0.89
